{"source": "the BET-seq Pho4 binding data (Le et al. 2018)", "note": "This is one part of the list. These are noisy estimates, calculated here from bound and input reads."}
{"target": "T1, Pho4 (S. cerevisiae) (UniProt P07270)", "T1 sequence": "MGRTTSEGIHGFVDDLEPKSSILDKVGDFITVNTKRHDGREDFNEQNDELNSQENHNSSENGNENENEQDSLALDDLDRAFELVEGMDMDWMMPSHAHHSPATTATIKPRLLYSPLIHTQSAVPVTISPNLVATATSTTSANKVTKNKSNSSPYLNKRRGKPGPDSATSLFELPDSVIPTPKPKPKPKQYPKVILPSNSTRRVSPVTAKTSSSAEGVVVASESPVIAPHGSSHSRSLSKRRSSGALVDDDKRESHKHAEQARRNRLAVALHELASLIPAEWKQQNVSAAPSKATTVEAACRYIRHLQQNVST", "assay": "relative binding free energy (BET-seq); higher = weaker binding", "conditions": "reference: library average", "units": {"relative binding free energy": "kcal/mol"}}
{"sequence": "AATTACACGTGTATGG", "relative binding free energy": -0.03}
{"sequence": "CGGCTCACGTGGTGGC", "relative binding free energy": 0.18}
{"sequence": "AATCGCACGTGTTTTG", "relative binding free energy": 0.21}
{"sequence": "ATGTACACGTGTATGC", "relative binding free energy": 0.08}
{"sequence": "GACCTCACGTGGGGGG", "relative binding free energy": -0.06}
{"sequence": "GCTTTCACGTGATGGA", "relative binding free energy": 0.43}
{"sequence": "TCGTGCACGTGTTAAG", "relative binding free energy": 0.07}
{"sequence": "CAATACACGTGTTTGT", "relative binding free energy": 0.04}
{"sequence": "TTTGCCACGTGTCGGT", "relative binding free energy": -0.1}
{"sequence": "CATGACACGTGGGAGG", "relative binding free energy": -0.02}
{"sequence": "GGTTGCACGTGGGAAG", "relative binding free energy": 0.05}
{"sequence": "GTTAACACGTGGTTTG", "relative binding free energy": 0.02}
{"sequence": "GTGGGCACGTGGTACG", "relative binding free energy": -0.13}
{"sequence": "AGGTGCACGTGTATGG", "relative binding free energy": -0.04}
{"sequence": "CAGAGCACGTGGGGGC", "relative binding free energy": -0.24}
{"sequence": "GTCTCCACGTGTTGGT", "relative binding free energy": 0.02}
{"sequence": "CGGTTCACGTGGGTAC", "relative binding free energy": 0.16}
{"sequence": "GTTTTCACGTGGCATT", "relative binding free energy": 0.14}
{"sequence": "AAGAGCACGTGTGTGT", "relative binding free energy": -0.22}
{"sequence": "GGTGGCACGTGCAAAG", "relative binding free energy": -0.08}
{"sequence": "GTCGTCACGTGATGGA", "relative binding free energy": 0.15}
{"sequence": "TGAAACACGTGTGTTG", "relative binding free energy": -0.05}
{"sequence": "TCGGTCACGTGTGGGG", "relative binding free energy": 0.16}
{"sequence": "GTTGACACGTGGCGAG", "relative binding free energy": -0.01}
{"sequence": "TATGCCACGTGGCGGT", "relative binding free energy": -0.07}
{"sequence": "GGGATCACGTGCGGCG", "relative binding free energy": 0.11}
{"sequence": "ACTTTCACGTGGGGCT", "relative binding free energy": 0.05}
{"sequence": "TCGTACACGTGTAGTT", "relative binding free energy": 0.08}
{"sequence": "TAGTGCACGTGGTTTA", "relative binding free energy": -0.02}
{"sequence": "AGAGACACGTGGGTAG", "relative binding free energy": -0.12}
{"sequence": "TTTGTCACGTGTTAAA", "relative binding free energy": 0.2}
{"sequence": "TTTTACACGTGTTGAG", "relative binding free energy": 0.21}
{"sequence": "CTGTGCACGTGTTAGA", "relative binding free energy": -0.06}
{"sequence": "CAAGGCACGTGATATG", "relative binding free energy": 0.07}
{"sequence": "AGTTCCACGTGTAGGT", "relative binding free energy": -0.03}
{"sequence": "ATATACACGTGATGGT", "relative binding free energy": 0.04}
{"sequence": "GGAGCCACGTGGGGAG", "relative binding free energy": -0.16}
{"sequence": "TTGGACACGTGAACGT", "relative binding free energy": 0.24}
{"sequence": "ATGTTCACGTGGGATA", "relative binding free energy": 0.22}
{"sequence": "TATTGCACGTGGGAGG", "relative binding free energy": -0.12}
{"sequence": "TGGGCCACGTGGGTAG", "relative binding free energy": -0.15}
{"sequence": "TGATGCACGTGCGTGA", "relative binding free energy": -0.17}
{"sequence": "GGAAACACGTGTGGTA", "relative binding free energy": 0.05}
{"sequence": "GCATGCACGTGATTGG", "relative binding free energy": 0}
{"sequence": "TCTTGCACGTGGTTAT", "relative binding free energy": -0.08}
{"sequence": "TTGAACACGTGTTGGA", "relative binding free energy": 0.08}
{"sequence": "GTGTGCACGTGGTTGG", "relative binding free energy": 0}
{"sequence": "ACTTTCACGTGTAGGT", "relative binding free energy": 0.18}
{"sequence": "TTAGTCACGTGGTGGT", "relative binding free energy": 0.17}
{"sequence": "GGGGCCACGTGATAGT", "relative binding free energy": 0.06}
{"sequence": "GGTGACACGTGAGTGC", "relative binding free energy": 0.2}
{"sequence": "ATAGACACGTGATGGT", "relative binding free energy": 0.08}
{"sequence": "TTTTACACGTGGGTGC", "relative binding free energy": -0.03}
{"sequence": "GTGTTCACGTGCTGCG", "relative binding free energy": 0.14}
{"sequence": "ATGGACACGTGGGAAG", "relative binding free energy": -0.08}
{"sequence": "GTGGTCACGTGAGATA", "relative binding free energy": 0.4}
{"sequence": "ATGGTCACGTGTCAAT", "relative binding free energy": 0.14}
{"sequence": "GTGGTCACGTGTCGTG", "relative binding free energy": 0.14}
{"sequence": "GACGGCACGTGTGCGT", "relative binding free energy": -0.04}
{"sequence": "TCGGGCACGTGCCGGT", "relative binding free energy": -0.11}
{"sequence": "TGGTACACGTGGAGGC", "relative binding free energy": 0.16}
{"sequence": "TCTCACACGTGGGGGT", "relative binding free energy": -0.17}
{"sequence": "GCGGGCACGTGGGTGA", "relative binding free energy": -0.27}
{"sequence": "TGGAACACGTGTCAGG", "relative binding free energy": 0.14}
{"sequence": "CTGCGCACGTGTGGGA", "relative binding free energy": -0.09}
{"sequence": "TTTTTCACGTGGCATC", "relative binding free energy": 0.38}
{"sequence": "GTTTTCACGTGCATAA", "relative binding free energy": 0.5}
{"sequence": "GGATTCACGTGTTTGG", "relative binding free energy": 0.27}
{"sequence": "GGATTCACGTGAAATG", "relative binding free energy": 0.5}
{"sequence": "GTTGTCACGTGGATCT", "relative binding free energy": -0.08}
{"sequence": "TTTTTCACGTGTGTGC", "relative binding free energy": 0.33}
{"sequence": "ATAAGCACGTGGTTTT", "relative binding free energy": -0.14}
{"sequence": "GGGTACACGTGAAATG", "relative binding free energy": 0.4}
{"sequence": "ATGTTCACGTGTGGGC", "relative binding free energy": 0.34}
{"sequence": "GTAAACACGTGGGTCG", "relative binding free energy": 0.01}
{"sequence": "ATGGGCACGTGGCGCG", "relative binding free energy": -0.18}
{"sequence": "TCAGACACGTGGGAGT", "relative binding free energy": -0.07}
{"sequence": "TGCGTCACGTGTTGTT", "relative binding free energy": 0.16}
{"sequence": "TTGCTCACGTGTGGTT", "relative binding free energy": 0.25}
{"sequence": "AATCACACGTGTTGGT", "relative binding free energy": -0.04}
{"sequence": "GTAGTCACGTGTCGCT", "relative binding free energy": 0.12}
{"sequence": "TTTCACACGTGTGCGG", "relative binding free energy": 0.1}
{"sequence": "ACTGTCACGTGACGGT", "relative binding free energy": 0.24}
{"sequence": "CCTTTCACGTGTGTGT", "relative binding free energy": 0.2}
{"sequence": "CGTAGCACGTGTTGAG", "relative binding free energy": 0.04}
{"sequence": "GATTTCACGTGGAATT", "relative binding free energy": 0.49}
{"sequence": "GGTATCACGTGAGCGT", "relative binding free energy": 0.35}
{"sequence": "GTTCGCACGTGGGCTA", "relative binding free energy": -0.1}
{"sequence": "TGAGCCACGTGAAGGG", "relative binding free energy": 0.2}
{"sequence": "TATCACACGTGGGTGG", "relative binding free energy": -0.1}
{"sequence": "GTAATCACGTGGCTGT", "relative binding free energy": 0.03}
{"sequence": "TGGAGCACGTGGCGAG", "relative binding free energy": -0.26}
{"sequence": "TAGTCCACGTGGTATG", "relative binding free energy": -0.08}
{"sequence": "CGCTACACGTGAGGTG", "relative binding free energy": 0.28}
{"sequence": "TGTTTCACGTGTAACG", "relative binding free energy": 0.32}
{"sequence": "TGGTGCACGTGCTTCA", "relative binding free energy": -0.09}
{"sequence": "AAGGGCACGTGCAGGA", "relative binding free energy": -0.15}
{"sequence": "AATTGCACGTGTTAGG", "relative binding free energy": 0.05}
{"sequence": "TTGTCCACGTGTGGCG", "relative binding free energy": -0.06}
{"sequence": "TCAGTCACGTGTGGTG", "relative binding free energy": 0.19}
{"sequence": "TATTGCACGTGAGTTC", "relative binding free energy": 0.17}
{"sequence": "GGGGTCACGTGGGACT", "relative binding free energy": -0.03}
{"sequence": "GAATGCACGTGGGATA", "relative binding free energy": 0.02}
{"sequence": "GGTTACACGTGGATTA", "relative binding free energy": 0.06}
{"sequence": "GTTCGCACGTGGTATA", "relative binding free energy": -0.06}
{"sequence": "TTTTTCACGTGGGGGC", "relative binding free energy": 0.27}
{"sequence": "TGAAGCACGTGAGTAT", "relative binding free energy": 0.18}
{"sequence": "TAGTGCACGTGTATTG", "relative binding free energy": -0.08}
{"sequence": "GCTTGCACGTGTTTGA", "relative binding free energy": 0.08}
{"sequence": "AAAATCACGTGATAGT", "relative binding free energy": 0.49}
{"sequence": "ATAATCACGTGGGCTA", "relative binding free energy": 0}
{"sequence": "ATTCACACGTGTTGTG", "relative binding free energy": 0.15}
{"sequence": "TTTTACACGTGACTGT", "relative binding free energy": 0.23}
{"sequence": "AATGTCACGTGCGGGT", "relative binding free energy": -0.07}
{"sequence": "TGTGACACGTGTTCGA", "relative binding free energy": -0.02}
{"sequence": "AGAATCACGTGTAAGT", "relative binding free energy": 0.23}
{"sequence": "CGATTCACGTGGAAGG", "relative binding free energy": 0.31}
{"sequence": "CTCGGCACGTGGTGGT", "relative binding free energy": -0.2}
{"sequence": "CGTGTCACGTGTTTTC", "relative binding free energy": -0.01}
{"sequence": "ATCTGCACGTGGCGGT", "relative binding free energy": -0.12}
{"sequence": "GTCTTCACGTGACGGT", "relative binding free energy": 0.49}
{"sequence": "GTGAGCACGTGTTTAA", "relative binding free energy": -0.14}
{"sequence": "TGTCGCACGTGTGACT", "relative binding free energy": 0.02}
{"sequence": "CTGATCACGTGGGGGA", "relative binding free energy": 0.01}
{"sequence": "AGCTGCACGTGGTAGT", "relative binding free energy": -0.02}
{"sequence": "GAAGGCACGTGTCGGC", "relative binding free energy": 0.07}
{"sequence": "ACTGTCACGTGTGGGG", "relative binding free energy": 0.18}
{"sequence": "TTTTGCACGTGCCGTG", "relative binding free energy": -0.02}
{"sequence": "ATTGTCACGTGTGGCG", "relative binding free energy": 0.17}
{"sequence": "GTTGTCACGTGCTTGT", "relative binding free energy": 0.18}
{"sequence": "GTCTTCACGTGCTTGG", "relative binding free energy": 0.37}
{"sequence": "TGTATCACGTGGATGA", "relative binding free energy": 0.09}
{"sequence": "TTGTTCACGTGTGGGA", "relative binding free energy": 0.27}
{"sequence": "CAATACACGTGTGGTG", "relative binding free energy": 0.05}
{"sequence": "TAGGACACGTGCGGTT", "relative binding free energy": 0}
{"sequence": "TATGTCACGTGGATAT", "relative binding free energy": 0.04}
{"sequence": "TCGGTCACGTGGAGTG", "relative binding free energy": 0.03}
{"sequence": "CTTTTCACGTGATTAT", "relative binding free energy": 0.31}
{"sequence": "CCTTTCACGTGGGAGG", "relative binding free energy": 0.19}
{"sequence": "TTTGTCACGTGCAAAG", "relative binding free energy": 0.07}
{"sequence": "TTGTCCACGTGGAGTA", "relative binding free energy": 0.08}
{"sequence": "CAATACACGTGGGTGG", "relative binding free energy": -0.16}
{"sequence": "AGGGACACGTGATTTA", "relative binding free energy": 0.18}
{"sequence": "GGTATCACGTGTGGTC", "relative binding free energy": 0.21}
{"sequence": "AGTTGCACGTGGCCTG", "relative binding free energy": -0.07}
{"sequence": "TACTTCACGTGTGTGT", "relative binding free energy": 0.25}
